Assay results taken from PubChem BioAssay (NCATS).
The shares of active, inactive and inconclusive entries below differ from those in the screen. For some of these results: Potencies of inconclusive entries are doubtful fits and often do not repeat. Activity calls are given as the source filed them. Unless noted, calls follow the shape of the dose curve; as a rule, active = well fitted curve in the direction sought with a large enough effect; inconclusive = small, poorly fitted or top-dose-only effect, or another doubt; inactive = no such curve, though single readings can be large; an effect the other way counts as inactive or inconclusive.

Tests used:
[1] = Cell Viability - NIH 3T3 (AID 541); settings: NIH 3T3 cell viability, qHTS; activity change, negative = cytotoxicity: at 92.2 µM (top of the series);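 also: cells exposed to compound for 40 hours; plate controls were DMSO alone for no effect and tamoxifen positive control for full effect; nearly all actives have a fitted effect of over 25% in size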
Procedure, shortened: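 AC50 values reflect concentration-dependent loss of intracellular ATP in NIH 3T3 cells after 40 hr treatment in complete culture medium, quantified by luciferase-based luminescence.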

[2] = Cell Viability - LYMP2-009 (AID 968);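 also: 0% = DMSO alone and the full-kill end = tetraoctylammonium bromide at 92 µM; nearly all actives have a fitted effect of over 55% in size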
[3] = Cell Viability - LYMP2-015 (AID 971); settings: LYMP2-015 lymphoblastoid cell viability; activity change, negative = lower viability: at 92.2 µM (top of the series); also: potency is read from the fitted curve at half-maximal effect; nearly all actives have a fitted effect of over 55% in size
Procedure, shortened: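 Acute toxicity was scored as a concentration-dependent drop in intracellular ATP in lymphoblastoid cells after 24 hr compound exposure in complete medium. Detection used CellTiter-Glo luciferase luminescence.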

[4] = qHTS assay for small molecule agonists of the antioxidant response element (ARE) signaling pathway (AID 651741; active = well fitted activation curve with a large enough effect in the signal ratio; inconclusive = small, poorly fitted or top-dose-only effect, or effect the other way, or a change in a side signal; the % refers to the signal ratio; also: % of control where 0% means no effect); settings: HepG2 ARE-bla reporter, beta-lactamase FRET ratio, 16 h; activation: at 96 µM (top of the series)
Procedure, shortened: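 HepG2 ARE-bla cells plated at 2,000 cells/well and incubated 5 h at 37 C/5% CO2 received 23 nL compound in DMSO. After 16 h at 37 C, LiveBLAzer B/G FRET substrate was applied for 2 h at room temperature and fluorescence read.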

[5] = qHTS assay for small molecule activators of the nuclear factor-kappa B (NF-kB) signaling pathway (AID 651749; active = well fitted activation curve with a large enough effect in the signal ratio; inconclusive = small, poorly fitted or top-dose-only effect, or a change in a side signal; the % refers to the signal ratio; also: % of control where 0% means no effect); settings: NF-kB-bla ME-180 cells, beta-lactamase FRET ratio, 16 h; activation: active compounds read high
Procedure, shortened: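 Incubation lasted 16 hr at 37C in 5% CO2 after 23 nL compound addition to ME-180 NF-kB-bla cells. Activation appears as beta-lactamase-mediated FRET loss.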

[6] = qHTS Assay for Identifying Gametocytocidal Compounds (AID 743244);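 also: % is scaled to controls: 0 for no effect and ±100 for the full control effect; actives lower the fluorescent signal which means gametocytes are killed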; settings: P. falciparum 3D7 stage III-V gametocytes, alamarBlue, 72 h; max response: active compounds read low
Procedure, shortened: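 Viability read-out was resazurin reduction (alamarBlue, 24 h) measured at Ex 525/Em 598 nm. Beforehand, late-stage (III-V) 3D7 P. falciparum gametocytes at 20,000 cells/well were incubated with compound 72 h at 37C under 5% CO2.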

[7] = qHTS of pediatric cancer cell lines to identify multiple opportunities for drug repurposing: Primary screen for A673 cells (AID 1347092); settings: A673 Ewing sarcoma viability, CellTiter-Glo ATP luminescence, 48 h; activity change, negative = cytotoxic: at 46 µM (top of the series); also: % is scaled to controls: 0 for no effect and ±100 for the full control effect; nearly all actives have a fitted effect of over 45% in size
Procedure, shortened: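 Titration-based qHTS on A673 cells: MIPE compounds spanned 11 points (0.78 nM to 46 µM final), NPC compounds 8 points (0.59 nM to 46 µM final). Viability after 48 h was measured by ATP luminescence.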

[8] = qHTS of pediatric cancer cell lines to identify multiple opportunities for drug repurposing: Primary screen for SK-N-MC cells (AID 1347093); settings: SK-N-MC viability, CellTiter-Glo luminescence, 48 h; activity change, negative = cytotoxic: at 46 µM (top of the series);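 also: plate controls were DMSO neutral control for no effect and bortezomib for full effect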
Procedure, shortened: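 Metabolically active cells were quantified by ATP-dependent luminescence (CellTiter-Glo, 15 min at room temperature) following 48 h treatment. Cells had been plated at 500-1,000 per well and settled for 5 h beforehand.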

[9] = qHTS of pediatric cancer cell lines to identify multiple opportunities for drug repurposing: Primary screen for BT-37 cells (AID 1347094);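 also: plate controls were DMSO for no effect and bortezomib for full effect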
Procedure, shortened: (§1)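 500-1,000 cells/well; 5 h pre-incubation 37 °C/5% CO2; compound pinned; 48 h; CellTiter-Glo, 15 min RT; luminescence. MIPE 11-pt from 0.78 nM, NPC 8-pt from 0.59 nM final. Bortezomib 2.3 µM final as positive control.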

[10] = qHTS of pediatric cancer cell lines to identify multiple opportunities for drug repurposing: Primary screen for U-2 OS cells (AID 1347096);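 also: plate controls were DMSO wells for no effect and bortezomib positive control wells for full effect; nearly all actives have a fitted effect of over 50% in size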
Procedure, shortened: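 Viability after 48 h compound treatment at 37C, 500-1,000 cells/well, read as ATP luminescence with CellTiter-Glo. Primary screens used 11-point (MIPE, 0.78 nM-46 µM) or 8-point (NPC, 0.59 nM-46 µM) final concentrations; follow-up screens used 11-point dilutions.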

[11] = qHTS of pediatric cancer cell lines to identify multiple opportunities for drug repurposing: Primary screen for BT-12 cells (AID 1347101);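 also: plate controls were DMSO for no effect and bortezomib positive control for full effect; nearly all actives have a fitted effect of over 25% in size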
Procedure, shortened: (§2)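 Cells (500-1,000/well) rested 5 h, then received compounds for 48 h; metabolically active cells were measured by CellTiter-Glo luminescence. Final concentrations spanned up to 46 µM (MIPE, 11-point) or 0.59 nM-46 µM (NPC, 8-point) in primary screens, 11-point in follow-ups.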

[12] = qHTS of pediatric cancer cell lines to identify multiple opportunities for drug repurposing: Primary screen for OHS-50 cells (AID 1347103);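 also: plate controls were DMSO neutral control for no effect and bortezomib positive control for full effect; nearly all actives have a fitted effect of over 40% in size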
Procedure, shortened: as §2

[13] = qHTS of pediatric cancer cell lines to identify multiple opportunities for drug repurposing: Primary screen for Rh41 cells (AID 1347108);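 also: luminescence drop marks cytotoxic hits; nearly all actives have a fitted effect of over 70% in size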
Procedure, shortened: as §1

[14] = Primary qHTS for small molecule stabilizers of the endoplasmic reticulum resident proteome: Secreted ER Calcium Modulated Protein (SERCaMP) assay (AID 1508630); settings: SH-SY5Y GLuc-SERCaMP (Gaussia luciferase released on ER calcium loss) secretion, thapsigargin, luminescence; activity change, negative = inhibition: at 38.4 µM (top of the series) unless noted; also: potency is read from the fitted curve at half-maximal effect
Procedure, shortened: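 GLuc-SERCaMP-expressing SH-SY5Y cells, pretreated 16 h with compound, are challenged with thapsigargin to empty ER calcium stores; after 4 h, coelenterazine is added directly to the medium and luminescence is imaged.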

[15] = target: Cytochrome P450 2C9 (Homo sapiens) (UniProt P11712); test: Cytochrome P450 family 2 subfamily C member 9 (CYP2C9) small molecule antagonists: luciferase biochemical (cell-free) qHTS assay (AID 1645842; active = well fitted curve in the direction sought with a large enough effect in the repeat runs; inconclusive = weak or mixed curves; inactive = no such curve, though single readings can be large; an effect the other way counts as inactive or inconclusive; also: % is scaled to controls: 0 for no effect and ±100 for the full control effect; nearly all actives have a fitted effect of over 55% in size)
Sequence of UniProt P11712 (P11712 whole entry, looked up): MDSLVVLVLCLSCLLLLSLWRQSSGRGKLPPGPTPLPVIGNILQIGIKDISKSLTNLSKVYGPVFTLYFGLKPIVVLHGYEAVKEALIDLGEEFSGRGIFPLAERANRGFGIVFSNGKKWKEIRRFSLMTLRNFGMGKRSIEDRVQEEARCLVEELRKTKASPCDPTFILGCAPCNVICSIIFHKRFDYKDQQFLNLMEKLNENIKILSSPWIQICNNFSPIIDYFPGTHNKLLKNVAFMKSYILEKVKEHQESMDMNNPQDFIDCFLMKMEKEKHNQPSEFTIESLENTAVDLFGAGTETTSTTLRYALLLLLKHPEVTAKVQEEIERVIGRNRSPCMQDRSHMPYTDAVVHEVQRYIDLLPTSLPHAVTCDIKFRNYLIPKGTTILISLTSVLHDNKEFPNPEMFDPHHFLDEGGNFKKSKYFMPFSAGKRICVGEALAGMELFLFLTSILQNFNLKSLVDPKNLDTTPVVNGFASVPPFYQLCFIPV
Procedure, shortened: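 Luminescence, after 20 min with luciferin detection reagent, reflected CYP2C9 turnover during a 1 h NADPH-driven reaction at 37C. Enzyme-substrate mix contained 0.4% bovine serum albumin and was preincubated with compound 10 min at room temperature.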

[16] = Primary qHTS for inhibitors of nuclear receptor binding SET domain protein 2 (NSD2) in an isogenic RCH-ACV NSD2 p.E1099K mutant (9B) (AID 1645876); also: nearly all actives have a fitted effect of over 70% in size
[17] = Primary qHTS for inhibitors of nuclear receptor binding SET domain protein 2 (NSD2) in an RCH-ACV wild type WT cells (2C) (AID 1645877); settings: activity change, negative = cell killing: at 44.9 µM (top of the series) unless noted; also: % is scaled to controls: 0 for no effect and ±100 for the full control effect; nearly all actives have a fitted effect of over 70% in size
C2A = test: qHTS profiling for inhibitors of Plasmodium falciparum proliferation (AID 504749);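 also: 0% = DMSO vehicle and full inhibition = artemisinin control; nearly all actives have a fitted effect of over 60% in size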; settings: P. falciparum in erythrocytes, SYBR Green DNA, 72 h; series mostly up to 28.7 µM
Procedure, shortened: (§3)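 Readout was DNA-dye fluorescence from lysed cultures, ex 485/em 535 nm. Parasitized red cells had grown 72 h with compound; data scaled between 0.29 uM artemisinin and DMSO wells and corrected using vehicle-only plates.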

CP266 = test: as above; settings: P. falciparum in erythrocytes, SYBR Green DNA, 72 h; series mostly up to 28.7 µM
Procedure, shortened: as §3

CP335 = test: as above; settings: P. falciparum in erythrocytes, SYBR Green DNA, 72 h; series mostly up to 28.7 µM
Procedure, shortened: as §3

DIV30 = test: as above; settings: P. falciparum in erythrocytes, SYBR Green DNA, 72 h; series mostly up to 28.7 µM
Procedure, shortened: as §3

TAB109 = test: as above; settings: P. falciparum in erythrocytes, SYBR Green DNA, 72 h; series mostly up to 28.7 µM
Procedure, shortened: as §3

CRL-7250 = normal cell line; test: Cytotoxic Profiling of Annotated Libraries Using Quantitative High-Throughput Screening (AID 1296008); settings: Five cell lines viability, CellTiter-Glo ATP luminescence, 48-72 h; max response: active compounds read low; also: % is scaled to controls: 0 for no effect and ±100 for the full control effect; nearly all actives have a fitted effect of over 60% in size
Procedure, shortened: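 Cells exposed to compounds for 48 or 72 hr at 37 degrees Celsius. Viability read as ATP-coupled luminescence with CellTiter-Glo after 10 min at room temperature.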

CAOV3 = test: Primary qHTS to identify gynecologic anti-cancer compounds using libraries of approved drugs and bioactive compounds (AID 1345084); settings: Gynecologic cancer cell panel viability, ATPlite luminescence, 48 h; activity change, negative = cytotoxicity: at 57.5 µM (top of the series); also: nearly all actives have a fitted effect of over 55% in size; also: potency is read from the fitted curve at half-maximal effect; as to activity change, negative = cytotoxicity: % is scaled to controls: 0 for no effect and ±100 for the full control effect
Procedure, shortened: (§4)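 Five-point cytotoxicity, 48 h drug exposure at 37 C, 5% CO2, on cells seeded 16 h beforehand. ATP content read by ATPlite luminescence.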

Tov112D = test: as above; settings: Gynecologic cancer cell panel viability, ATPlite luminescence, 48 h; series mostly up to 57.5 µM
Procedure, shortened: as §4
Tags tell the direction and shape of the fitted curve.

CC(=O)Nc1ccc(C(=O)O)cc1
inactive: activity change, negative = cytotoxicity [1] -3.06% | Potency [2] | activation [5] -1.2% | max response [6] 7.86% | Potency [7] | Potency [8] | Potency [9] | Potency [10] | Potency [11] | Potency [12] | Potency [13] | Potency [15] | Potency [16] | Potency [17] | Potency (C2A) | Potency (CP266) | Potency (CP335) | Potency (DIV30) | Potency (TAB109) | max response (CRL-7250) -0.409% | Potency (Tov112D)
inconclusive: Potency [3] 10 µM [cytotoxic, partial curve, poor fit] | activation [4] 13% | Potency [14] 31.6 µM [inhibitor, single point] | Potency (CAOV3) 12.6 µM [rising, partial curve, poor fit]
